The source gives no read counts; variants with many changes may rest on few reads.

To fix the notation:
B1: CPEB3 Ribozyme (parent)
chain: UAACAGGGGGCCACAGCAGAAGCGUUCACGUCGCAGCCCCUGUCAGAUUCUGGUGAAUCUGCGAAUUCUGCUGUAUAUCUC

In the data set the parent is B1. Kind of data set: self-cleavage, relative activity (ratio to wild type); higher = more cleavage; in vitro, sequencing. The method, boiled down: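 Relative activity compares each variant's cleaved/total read fraction with that of the unmutated ribozyme. To get these fractions, barcoded CPEB3 ribozyme libraries from rounds of error-prone PCR were transcribed with T7 RNA polymerase for 5 hours at 37°C and then given 15 min of DNase I treatment before EDTA was added. The RNAs were reverse transcribed with template switching and sequenced on Illumina, and DNA sequencing linked barcodes to variants. A minimum of 5 reads applied, and three batches were averaged.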
Take UAACAGGGGGCCACGGCAGAAGCGCUCACGUCGCAGCCACUGUCAGAUUCUGGAGAAUCUGCGCAUUCCGCCGUAUAUCUC [A15G U25C C39A U54A A64C U69C U72C]: the self-cleavage stood at 0.09.
On to UAACAGGGGGCCACGGCAGAAGCGUACACGUCGCAGCCCCCGUCAGAUUCUGGCGUAACUGCGAGUUCUGCUGUAUAUCUC [A15G U26A U41C U54C A56U U58A A65G], for which the self-cleavage is 0.04.
The value for UAACAGGGGGCCACGGCAGAAGCGCUCACGUAGCAGCCCCUGUCAGAUUCUGGUGAAUCUGCGAUCUCUGCUGUAAAUCUC [A15G U25C C32A A65U U66C U76A] was 0.08; that for UAACAGGGGGCCACGGCAGAAGCGUACACGUCGCAGCCCCUGUCAGAUUCUGGUGAGUCUGCGAAUUCUGCUGUAUAUCUC [A15G U26A A57G] was 0.56; that for UAACAGGGGGCCACGGCAGAAGCGAUCACGUCGCAGCCCCUGUCAGAUUCAGGUGAAUCUGCAGAUUCUGCGGUAGAUCUC [A15G U25A U51A G63A A64G U72G U76G] was 0.15.
Turning to UAACAGGGGGCCACGGCAGAAGCGUACACGCCGCAGCCCCUGUCAUAUUCUGGUGAAUCUGCGAAUUCUGCUGUAUAUCUC [A15G U26A U31C G46U], the self-cleavage worked out at 0.03.
In the case of UAACAGGGGGCCACGGCAGAAGCGCUCACGUCGCAGCCCCUGUCAGAUUCUGGUGAAUCUGCGAAUUCUGCUGUAUGUCUC [A15G U25C A77G], the self-cleavage came out at 0.3.
UAACAGGGGGCCACGGCAGAAGCGCUCACGUCGCAGCCCCUGUCAGAUUCUGGUGAAUCUGCGAAUCCUGCUGUAUUUCUC [A15G U25C U67C A77U]: the self-cleavage is 0.18.
Turning to UAACAGGGGGCCACGGCAGAAGCGCUCACGUCGCAGCCCCAGUCAGAUUCUAGUGAAUCUGCGGAUUCUGCUGUAUAUCUC [A15G U25C U41A G52A A64G], the self-cleavage came out at 0.12.
Regarding UAACAGGGGGCCACGGCAGAAGCGCUCACGUCGCUGCCCCUGCCAGAUUCUGGUGAUUCUGCGUAUUCUGCUGUAUAUCUC [A15G U25C A35U U43C A57U A64U], the self-cleavage was determined as 0.04.
With UAACAGGGGGCCACGGCAGAAGCGCUCACGUCGCAGCCCCCGUCCGAUUCUGGUGAAUCUGCGAAUUCUUCUGUAUAUCUC [A15G U25C U41C A45C G70U], the self-cleavage stood at 0.51.
The value for UAACAGGGGGCCACGGCAGAAGCGCUCACGUCGCGGCCCCUGUCAGGUUCUGGUGAAUCUGCGAAUUCUGCUGUAUAUCCC [A15G U25C A35G A47G U80C] was 0; that for UAACAGGGGGCCACGGCAGAAGCGAUCACGUCGCAGCCCCUGUCAGAUUCUGGUGAAUCUGCGUAUUCUGCUGUACAUCUC [A15G U25A A64U U76C] was 0.05.
Turning to UAACAGGGGGCCACGGCAGAAGCGUUCACGUCGCAGCCCCUGUCAGAUUCUGGUAAAUCUGCGGAUUCUGCUGUAUAUCUC [A15G G55A A64G], the self-cleavage is 0.16.
In the case of UAACAGGGGGCCACGGCAGAAGCGCUAACGUCGCAGCCCCUGUCAGAUUCUGGUGAAUCUGCGAAUUCUGCUGUAUAUCUC [A15G U25C C27A], the self-cleavage worked out at 0.31.
On to UAACAGGGGGCCACGGCAGAAGCGCUCACGUCGCAGCCCCUGUCAGAUUUUGGUGAAUCCGCGAAUUCUGCUGUAUAUCUC [A15G U25C C50U U60C], for which the self-cleavage was determined as 0.2.
On to UAACAGGGGGCCACGGCAGAAGCGAUCACGUCGCAGCCCCUGUCAGAUCCUGGUGAACCUGCGAAUUCUGCUGUAUAUCUC [A15G U25A U49C U58C], for which the self-cleavage was 0.21.
On to UAACAGGGGGCCACGGCAGAAGCGUACGCGUCGCAGCCCCUGUUAGAUUCUGGUGAUUCUGCGAAUACUGCUGUAUAUCUC [A15G U26A A28G C44U A57U U67A], for which the self-cleavage stood at 0.02.
For the variant UAACAGGGGGCCACGGCAGAAGCGCUCACGUCGCAGCCCCUGUCAGACUCUGGUGAAUCUGCGAAUUCUGCUGUAUAUCUC [A15G U25C U48C], the self-cleavage was found to be 0.12.
As for UAACAGGGGGCCACGGCAGAAGCGCUCACGUCGCUGCCCCUGUCAGAUUCUGGUGAAUCCGCGAAUUCCGCUGUAUAUCUC [A15G U25C A35U U60C U69C], the self-cleavage was 0.16.
The value for UAACAGGGGGCCACGGCAGAAGCGCUCACGUCGCAGCCCCUGACAGAUUCUGGUGAAUCUGCGAAUUCUGCGGUAUAUCUC [A15G U25C U43A U72G] was 0.13; that for UAACAGGGGGCCACGGCAGAAGCGUUCACGUCGCAGCCCCUGUCAGAUUCUGGUGAAUCUGCAAGUUCUGCUGUAUAUCUC [A15G G63A A65G] was 0.19.
Regarding UAACAGGGGGCCACGGCAGAAGCGUUCACGUCGCAGCCCCUGUCAGAUUCUGGUGAAUCUGCAAUUUCUGCUGUAUAUCUC [A15G G63A A65U], the self-cleavage was 0.8.
UAACAGGGGGCCACGGCAGAAGCGCUCACGUCGCAGCCCCUGUCAGAUUCUGGUGAAUCUGUGAAUUCUGCUGUAUAUCUC [A15G U25C C62U]: the self-cleavage turned out to be 0.11.
Regarding UAACAGGGGGCCACGGCAGAAGCGUACACGUUGCAGCCCCUGUCUGAUUCAGGUGAAUCUGCGAAUUCUGCAGUAUAUCCC [A15G U26A C32U A45U U51A U72A U80C], the self-cleavage was found to be 0.06.
In the case of UAACAGGGGGCCACGGCAGAAGCGCUCACGUCGCAGCCCCUGUCCGAAUCUGGUGAAUCUGCGAAUUCUGCUGUAUAUCUC [A15G U25C A45C U48A], the self-cleavage came out at 0.17.
With UAACAGGGGGCCACGGCAGAAGCGCUCACGUCGCAGCUCCUGUCAGAAUCUGGUGAAUCUGCGAAUUCUGCUGUAUAUCUC [A15G U25C C38U U48A], the self-cleavage was 0.26.
The value for UAACAGGGGGCCACGGCAGAAGCGCUCACGUCGCAGCCCCUGUCAGAUUCUGGUGAAUCUGCGAACUCAGCUGUAUAUCUC [A15G U25C U66C U69A] was 0.14; that for UAACAGGGGGCCACGGCAGAAGCGCCCACGUCGCAGCCCCUGUCAGAUUCUGGUGAAUCUGCGAACUCUGCUGUAUAUCUC [A15G U25C U26C U66C] was 0.35; that for UAACAGGGGGCCACGGCAGAAGCGCUCACGUCGCAGCCCCUGUCAGAUUCUGGUGAAUCUGCGCAUUCAGCUGUAUAUCUC [A15G U25C A64C U69A] was 0.25.
For UAACAGGGGGCCACGGCAGAAGCGCUAACGUCGCAGGCCCUGUCAGAUUCUGGUGAAGCUGCGAAUCCUGCUGUAUAUCAC [A15G U25C C27A C37G U58G U67C U80A], the self-cleavage came out at 0.1.
As for UAACAGGGGGCCACGGCAGAAGCGCUCACCUCGCAGCCCCUGUCAGAUUCCGGUGAUUCUGCGAAUUCUGCUGUAUAUCUC [A15G U25C G30C U51C A57U], the self-cleavage was determined as 0.13.
Regarding UAACAGGGGGCCACGGCAGAAGCGAUCACGUCGCAGCCCCUGUCAGAUUCUGGUGAACCUGCGAAUUCUGCGGUAUAUCUC [A15G U25A U58C U72G], the self-cleavage came out at 0.14.
As for UAACAGGGGGCCACGGCAGAAGCGCUCACGUCGCAGCCCCUGUCAGAUCCUGGUGAAUCAGCGAGUUCUGCUGUAUAUCUC [A15G U25C U49C U60A A65G], the self-cleavage turned out to be 0.07.
